Experimental data reported in the supplement of paper PMC11417369.
The other results are listed elsewhere or left out.

test system: PF3D7_0420300 AP2 domain 1 (GST-tagged); assay: gcPBM binding intensity (ln(normalized median fluorescence intensity)); higher = stronger DNA binding
Summary of the method: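 Alexa488 anti-GST antibody, scanned at 488 nm, detected GST-tagged P. falciparum DNA-binding domains that had been expressed in E. coli and incubated for 1 h on an Agilent 4 × 180k array. The array carried primer-extended double-stranded 36-bp intergenic genomic probes and negative controls. Binding intensity is the highest Masliner-normalised natural-log median intensity across replicate spots of either orientation of each probe.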

Sequence	gcPBM binding intensity (ln)
TGAACATTATAGAAAAGTACTTAGTTTTTAAAAAGA [XGTACX_site6864]	9.06
TATTCAAAACGGTATTGTACAAATTTTATAATTTAA [XGTACX_site6928]	8.95
TATTCTAGAATTTTAACACACAAGAATATAAACTTT [CACACA_site6757]	9.32
ATTTTTAAATACAGTACACACATGGGTTTAAATTAT [CACACA_site2884]	9.47
TTATTATTCTTAAGGATATAACAAAAAAGAAAAATT [CACACA_negctrl_site1402]	9.05
TCCTATAAACAAATTTGTACATATAAGAATATATTC [XGTACX_site3892]	9.07
GGTTATATGATAGGATGTACAATTAAAAGTAAATAT [XGTACX_site5083]	9.33
TATTTATATTTATATACACACATATATACCTATATA [CACACA_site7820]	9.48
GATTATTTTAGAAGTACACACATTTATATATAATAA [CACACA_site5429]	9.35
TAAAATATAATGATCACACATATAAACAAGTGGGTA [CACACA_site4651]	9.45
AAAAGGATATATGAAAGTACAAAGGTATAGTATATT [XGTACX_site7385]	9.71
TACAGTAAAAATAGTTGTACTTGTTTATTTCTTCTT [XGTACX_site7674]	9.29
TATAACAAATAAAAATGTACATATATATAATATATA [XGTACX_site6173]	9.38
ATCTTATCATTTTAAAGTACATAATTAATTCTTTTT [XGTACX_site3999]	9.22
ATAATACCAGAATAGATTTAAATGAATATTTTATTT [CACACA_negctrl_site476]	9.14
ATGATATATTTAATAGTGCACTAATTAAAATTATTA [GTGCAC_site9418]	8.91
TATATATATAAATACACACACACAAAAAAAAAAAAA [CACACA_site4930]	10.1
AATTTAATTGTGAGAGTGCGTACTGCTCCACATATA	9.05
ATGTGTTTGTATATATGTACATATTTATGTTATTTC [XGTACX_site6960]	9.76
AAAAAAAAAAAAAAAAAAAAAAAAAAATGAGATACA [GTGCAC_negctrl_site160]	9.13
TTTTGATATATGAATATTAAGTTATATAATATTTTA [TGCATGCA_negctrl_site39]	8.95
TAGTTACCTTAATATTGTACTTTTCTTTCATATATG [XGTACX_site1309]	9.39
CACTAAATAAGGAAAGTGCATAAAATAAAGGTTATA [GTGCAC_site9793]	9.31

Sequence	gcPBM binding intensity (ln)
ATAGTTTCTGGTAGCTGTACGAGTCGTAGAGTGCAG [XGTACX_site2022]	9.18
GTGTCAAATTTTATAACACACAAAAGGTTATATAAG [CACACA_site7839]	9.28
ATTTAAAAAATATATTGTACATATTTTATTATGTTT [XGTACX_site2984]	9.23
TACAGTTTTTCTTTGAATTTATCAAGTTTTTTTCCC [XGTACX_negctrl_site60]	9.08
TAGTTAGCCCAAGGGGTGCTAATTACTATCTAAATA	8.84
TTTATAAATATTCTCACACACTTTTTATTTTAACAA [CACACA_site6454]	9.33
AACACCAATTCATATGCACACACATCTGCATATTAT [CACACA_site8523]	9.86
TATAGAAGCAAATTATGTACACAATATGGAAAATCA [XGTACX_site3345]	9.46
GTCGAGGATATATAAAGTACATATATATATATGATA [XGTACX_site1128]	9.25
TAATGTATCTAAAATTGTACAAATATAAATATAAAT [XGTACX_site2764]	9.19
CACAAACAAAAACACACACACACACCGACAAAAATG [CACACA_site5362]	10
TATAAATATTTATACACACACACATTAATACCTATA [CACACA_site7604]	10.1
AAAAGAAGATAATACAGTACAGAATAATATAAAATA [XGTACX_site5962]	9.54
AGAAAGAAGATATATACACACAAAAAAAGATATATA [CACACA_site6779]	9.81
TTCTTTCTAGAATATTGTACATATATTGTTATTATA [XGTACX_site8425]	9.27
AAATAAAATAAATAATATAAAATAATATATAAAAAA [CACACA_negctrl_site1777]	9.42
TTTTGTTAAAAAGATGTATATTTTATAAATATTTAT [CACACA_negctrl_site101]	8.92
AAAAAAAAATTGTGTACACATAATTATATCATATGT [CACACA_site4500]	9.3
ATGGATAATAAGTTTACACACAAAAAAAAAGAAAAA [CACACA_site861]	9.77
ATAAGAATCATATTTAAACACACATACATATATATA [CACACA_site9106]	9.64
TTTTTATTGGTGAATACACACGTATATATATATTAT [CACACA_site8756]	9.49
ATTAAATAAACCATTACACACTTTTATGTTTTGAAA [CACACA_site1143]	9.3
ATTATATTAACAATGACATGCAATTCTTAATCCTTA [TGCATGCA_site648]	9.06

Sequence	gcPBM binding intensity (ln)
AAAAAAAAAAAATACACACACATAAAAAAAAAAATA [CACACA_site1858]	10
AAAAAAAAACAAAAAAGTACAAAATAAAAATACGTT [XGTACX_site4566]	9.52
CTCTTCATATATAATTGTACACACAAAAACGACATT [XGTACX_site4287]	9.66
TATATATATTTTGGCTGTACATCAGCGTATATTTTT [XGTACX_site3233]	9.17
AATAAATATATACATTGTACATATATAATATATATA [XGTACX_site1458]	9.14
TAAATTATAATATGCACACAAAATGTTATATTAAAA [CACACA_site376]	8.97
CCTATCCATGCATATACACACATATCTATTTATATA [CACACA_site6886]	9.78
AATATATTGTTTCCTGATATTAAATTCAATTTAATG [GTGCAC_negctrl_site22]	9.11
TAAAGAGAGACATCAACACACATACGTATGTATAGA [CACACA_site4896]	9.52
ATTTACCTATATATTTGTACTTACATAATGCTACCT [XGTACX_site2693]	9.63
TAAAAAAAAATATATAAACACACATATTTATATACA [CACACA_site8469]	9.36
CCAATGTTTTCTTGTGTACACATCATTAAAGAAAAA [CACACA_site5300]	9.02
ATTCTATATGAAAAATGTACAAATAAAAATTCTAAG [XGTACX_site8900]	9.09
CATGAAAATATTATGTGTACTTAATGCACATTCAAA [XGTACX_site1952]	9.07
CACGCATACAGACACACACACACACCGATATATATA [CACACA_site8113]	10.3
ATGAATAAATAAGACACACACGAAAATAAGTAAAAA [CACACA_site4216]	10.1
TATTTTGATTATTCAGTGTATAAATATATATATATA [CACACA_negctrl_site545]	9.17
CATATATACGCATACACACACACACCCACACCCACA [CACACA_site1725]	10.2
TACAAATATATATGCACACACATATACATACAGATA [CACACA_site5238]	9.77
TGATGAAAATCTACATGAATGTTTTTATATCTATAT [GTGCAC_negctrl_site139]	9.14
TATTTATACCTATACACACACACACGGATATTTATA [CACACA_site7123]	10.2
GATAAAATCACTGGTGCATGTAGATATATAATATTA [TGCATGCA_site589]	9.26
AATTAACAAAAACACACACACACACCGACAAAAAAA [CACACA_site4444]	10.3

Sequence	gcPBM binding intensity (ln)
ATATGCTTATTGTAAAGTACATTATTATTTTTCCTA [XGTACX_site5479]	9.33
AAAAAAAAATTAAAATGTACACATAAAAAAAAAAAA [XGTACX_site794]	9.35
AAAAATAAATAAATATGTACATATATACATATATAT [XGTACX_site5892]	9.16
TTTTATATGTTATATACACACATATAAATAAATATA [CACACA_site7418]	9.2
AACAGGTCATAATTTACACACTATATATTTTATTAT [CACACA_site670]	9.66
TAACATATGGGACACACATGCAACTGTTATATGTCC [TGCATGCA_site959]	9.47
AGAAAACATATGTTTTGTACTTAAGAAAAAAAAAAA [XGTACX_site4231]	8.97
TGATTAATTTTTAAATGTACTTAAAAATATACTTAT [XGTACX_site2872]	8.88
ATCTATATTCATAATACACACATTCTGTAGCATTAT [CACACA_site7058]	9.55
TATATCATATAAAACCGTACATACATACTTAATTGT [XGTACX_site6822]	9.49
AGGAGGATAGTTCACAGTACCCAGGAAATCTGCGGA [XGTACX_site4928]	9.16
TATGCAATAAAATATACACACAATATACTTATATAT [CACACA_site7691]	9.69
TTTATTTTCCAAAGGGTGCACATAGTTAAAACGATA [GTGCAC_site9855]	9.16
ATAAATATACCAATCGGTACACATTTATACAAACAA [XGTACX_site7484]	9.41
AGAATAAATATGTGGTGTTATAGTATTAATGTTAAT [TGCATGCA_negctrl_site62]	9.39
AATAAATACACATACACACACGACGCTAGTATATGT [CACACA_site6627]	9.87
GCTATAAATATAATCACACATAAATATATAATATAT [CACACA_site5144]	9.22
GAATATTAAATATTATCACACACATAATTATTTCCA [CACACA_site8730]	9.47
ATATATATTTATAATCGTACGTACCTAACAATACAA [XGTACX_site4510]	9.19
AAATAAAAAAAAGCCTGTACATGTTCATAAATTTTT [XGTACX_site7925]	9.2
